Reference: the supplement of paper PMC8728848
The other results are listed elsewhere or left out.

What was measured:
Assay in all cases: glycan array binding signal (z-score within array); higher = stronger binding
Settings in all cases: glycan notation: IUPAC condensed, linker removed
Gal(b1-2)Gal = molecular target: Gal(b1-2)Gal
In short: (§1)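 The Consortium for Functional Glycomics database supplied 3228 glycan arrays, of which those lacking an available protein sequence were dropped. The binding signal, a within-array Z-score, was averaged across arrays of the same protein sequence and across linkers. Negative scores can be read as non-binding.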

Gal(b1-3)Gal = molecular target: Gal(b1-3)Gal
In short: as §1

Gal(b1-3)Gal(b1-4)GlcNAc = molecular target: Gal(b1-3)Gal(b1-4)GlcNAc
In short: as §1

Gal(b1-3)GalNAc = molecular target: Gal(b1-3)GalNAc
In short: as §1

[1] = molecular target: Gal(b1-3)GalNAc(b1-3)Gal(a1-4)Gal(b1-4)Glc
In short: as §1

[2] = molecular target: Gal(b1-3)GalNAc(b1-4)Gal(b1-4)Glc
In short: as §1

[3] = molecular target: Gal(b1-3)GalNAc(b1-4)[Neu5Ac(a2-3)]Gal(b1-4)Glc
In short: as §1

Gal(b1-3)GlcNAc = molecular target: Gal(b1-3)GlcNAc
In short: as §1

[4] = molecular target: Gal(b1-3)GlcNAc(b1-2)Man(a1-3)[Gal(b1-3)GlcNAc(b1-2)Man(a1-6)]Man(b1-4)GlcNAc(b1-4)GlcNAc
In short: as §1

[5] = molecular target: Gal(b1-3)GlcNAc(b1-3)Gal(b1-3)GlcNAc
In short: as §1

[6] = molecular target: Gal(b1-3)GlcNAc(b1-3)Gal(b1-4)Glc
In short: as §1

[7] = molecular target: Gal(b1-3)GlcNAc(b1-3)Gal(b1-4)GlcNAc
In short: as §1

[8] = molecular target: Gal(b1-3)[Fuc(a1-4)]GlcNAc
In short: as §1

[9] = molecular target: Gal(b1-3)[Fuc(a1-4)]GlcNAc(b1-3)Gal(b1-3)[Fuc(a1-4)]GlcNAc
In short: as §1

[10] = molecular target: Gal(b1-3)[Fuc(a1-4)]GlcNAc(b1-3)Gal(b1-4)GlcNAc
In short: as §1

[11] = molecular target: Gal(b1-3)[Fuc(a1-4)]GlcNAc(b1-3)Gal(b1-4)[Fuc(a1-3)]GlcNAc
In short: as §1

[12] = molecular target: Gal(b1-3)[GlcNAc(b1-6)]GalNAc
In short: as §1

[13] = molecular target: Gal(b1-3)[Neu5Ac(a2-6)]GalNAc
In short: as §1

[14] = molecular target: Gal(b1-3)[Neu5Ac(a2-6)]GlcNAc(b1-6)Gal(b1-4)Glc
In short: as §1

[15] = molecular target: Gal(b1-3)[Neu5Ac(b2-6)]GalNAc
In short: as §1

[16] = molecular target: Gal(b1-4)GalNAc(a1-3)[Fuc(a1-2)]Gal(b1-4)GlcNAc
In short: as §1

[17] = molecular target: Gal(b1-4)GalNAc(b1-3)[Fuc(a1-2)]Gal(b1-4)GlcNAc
In short: as §1

Gal(b1-4)Glc = molecular target: Gal(b1-4)Glc
In short: as §1

Gal(b1-4)Glc6S = molecular target: Gal(b1-4)Glc6S
In short: as §1

Gal(b1-4)GlcNAc = molecular target: Gal(b1-4)GlcNAc
In short: as §1

[18] = molecular target: Gal(b1-4)GlcNAc(a1-6)Gal(b1-4)GlcNAc
In short: as §1

[19] = molecular target: Gal(b1-4)GlcNAc(b1-2)Man(a1-3)[Gal(b1-4)GlcNAc(b1-2)Man(a1-6)]Man(b1-4)GlcNAc(b1-4)GlcNAc
In short: as §1

[20] = molecular target: Gal(b1-4)GlcNAc(b1-3)Gal(b1-3)GlcNAc
In short: as §1

[21] = molecular target: Gal(b1-4)GlcNAc(b1-3)Gal(b1-4)Glc
In short: as §1

[22] = molecular target: Gal(b1-4)GlcNAc(b1-3)Gal(b1-4)GlcNAc
In short: as §1

[23] = molecular target: Gal(b1-4)GlcNAc(b1-3)Gal(b1-4)GlcNAc(b1-3)Gal(b1-4)GlcNAc
In short: as §1

[24] = molecular target: Gal(b1-4)GlcNAc(b1-3)Gal(b1-4)[Fuc(a1-3)]GlcNAc(b1-3)Gal(b1-4)[Fuc(a1-3)]GlcNAc
In short: as §1

[25] = molecular target: Gal(b1-4)GlcNAc(b1-3)GalNAc
In short: as §1

[26] = molecular target: Gal(b1-4)GlcNAc(b1-3)[Gal(b1-4)GlcNAc(b1-6)]Gal(b1-4)GlcNAc
In short: as §1

[27] = molecular target: Gal(b1-4)GlcNAc(b1-3)[GlcNAc(b1-6)]Gal(b1-4)GlcNAc
In short: as §1

[28] = molecular target: Gal(b1-4)GlcNAc(b1-6)Gal(b1-4)GlcNAc
In short: as §1

[29] = molecular target: Gal(b1-4)GlcNAc(b1-6)Gal(b1-4)GlcNAc(b1-6)GalNAc
In short: as §1

[30] = molecular target: Gal(b1-4)GlcNAc(b1-6)GalNAc
In short: as §1

[31] = molecular target: Gal(b1-4)GlcNAc(b1-6)[Gal(b1-3)]GalNAc
In short: as §1

Gal3S(b1-3)GalNAc = molecular target: Gal3S(b1-3)GalNAc
In short: as §1

Gal3S(b1-3)GlcNAc = molecular target: Gal3S(b1-3)GlcNAc
In short: as §1

[32] = molecular target: Gal3S(b1-3)[Fuc(a1-4)]GlcNAc
In short: as §1

Gal3S(b1-4)Glc = molecular target: Gal3S(b1-4)Glc
In short: as §1

Gal3S(b1-4)Glc6S = molecular target: Gal3S(b1-4)Glc6S
In short: as §1

Gal3S(b1-4)GlcNAc = molecular target: Gal3S(b1-4)GlcNAc
In short: as §1

Gal3S(b1-4)GlcNAc6S = molecular target: Gal3S(b1-4)GlcNAc6S
In short: as §1

[33] = molecular target: Gal3S(b1-4)[Fuc(a1-3)]Glc
In short: as §1

Gal3S4S(b1-4)GlcNAc = molecular target: Gal3S4S(b1-4)GlcNAc
In short: as §1

Gal3S6S(b1-4)GlcNAc = molecular target: Gal3S6S(b1-4)GlcNAc
In short: as §1

Gal3S6S(b1-4)GlcNAc6S = molecular target: Gal3S6S(b1-4)GlcNAc6S
In short: as §1

Gal4S(b1-4)GlcNAc = molecular target: Gal4S(b1-4)GlcNAc
In short: as §1

Gal4S6S(b1-4)GlcNAc = molecular target: Gal4S6S(b1-4)GlcNAc
In short: as §1

Gal6S(b1-4)Glc = molecular target: Gal6S(b1-4)Glc
In short: as §1

Gal6S(b1-4)Glc6S = molecular target: Gal6S(b1-4)Glc6S
In short: as §1

Gal6S(b1-4)GlcNAc = molecular target: Gal6S(b1-4)GlcNAc
In short: as §1

Gal6S(b1-4)GlcNAc6S = molecular target: Gal6S(b1-4)GlcNAc6S
In short: as §1

GalNAc(a1-3)Gal = molecular target: GalNAc(a1-3)Gal
In short: as §1

GalNAc(a1-3)GalNAc = molecular target: GalNAc(a1-3)GalNAc
In short: as §1

GalNAc(b1-3)Gal = molecular target: GalNAc(b1-3)Gal
In short: as §1

[34] = molecular target: GalNAc(b1-3)Gal(a1-4)Gal(b1-4)GlcNAc
In short: as §1

B1: Surfactant Protein D (Human); Neck + Carbohydrate Recognition Domain (NCRD) (Homo sapiens) (protein)
chain: MLLFLLSALVLLTQPLGYLEAEMKTYSHRTMPSACTLVMCSSVESGLPGRDRDGREGPRGEKGDPGLPGAAGQAGMPGQAGPVGPKGDNGSVGEPGPKGDTGPSGPPGPPGVPGPAGREGALGKQGNIGPQGKPGPKGEAGPKGEVGAPGMQGSAGARGLAGPKGERGVPGERGVPGNTGAAGSAGAMGPQGSPGARGPPGLKGDKGIPGDKGAKGESGLPDVASLRQQVEALQGQVQHLQAAFSQYKKVELFPNGQSVGEKIFKTAQFVKPFTEAQLLCTQAGGQLASPRSAAENAALQQLVVAKNEAAFLSMTDSKTEGKFTYPTGESLVYSNWAPGEPNDDGGSEDCVEIFTNGKWNDRACGEKRLVVCEF
glycan array binding signal (z-score) (Gal(b1-2)Gal): -0.174 | glycan array binding signal (z-score) (Gal(b1-3)Gal): -0.25 | glycan array binding signal (z-score) (Gal(b1-3)Gal(b1-4)GlcNAc): -0.274 | glycan array binding signal (z-score) (Gal(b1-3)GalNAc): -0.258 | glycan array binding signal (z-score) [1]: -0.132 | glycan array binding signal (z-score) [2]: -0.244 | glycan array binding signal (z-score) [3]: -0.27 | glycan array binding signal (z-score) (Gal(b1-3)GlcNAc): -0.263 | glycan array binding signal (z-score) [4]: -0.275 | glycan array binding signal (z-score) [5]: -0.234 | glycan array binding signal (z-score) [6]: -0.271 | glycan array binding signal (z-score) [7]: -0.239 | glycan array binding signal (z-score) [8]: -0.233 | glycan array binding signal (z-score) [9]: -0.19 | glycan array binding signal (z-score) [10]: -0.257 | glycan array binding signal (z-score) [11]: -0.053 | glycan array binding signal (z-score) [12]: -0.262 | glycan array binding signal (z-score) [13]: -0.281 | glycan array binding signal (z-score) [14]: -0.262 | glycan array binding signal (z-score) [15]: -0.147 | glycan array binding signal (z-score) [16]: -0.188 | glycan array binding signal (z-score) [17]: -0.254 | glycan array binding signal (z-score) (Gal(b1-4)Glc): -0.24 | glycan array binding signal (z-score) (Gal(b1-4)Glc6S): -0.207 | glycan array binding signal (z-score) (Gal(b1-4)GlcNAc): -0.205 | glycan array binding signal (z-score) [18]: -0.267 | glycan array binding signal (z-score) [19]: -0.253 | glycan array binding signal (z-score) [20]: -0.076 | glycan array binding signal (z-score) [21]: -0.273 | glycan array binding signal (z-score) [22]: -0.276 | glycan array binding signal (z-score) [23]: -0.193 | glycan array binding signal (z-score) [24]: -0.173 | glycan array binding signal (z-score) [25]: -0.113 | glycan array binding signal (z-score) [26]: -0.29 | glycan array binding signal (z-score) [27]: -0.231 | glycan array binding signal (z-score) [28]: -0.172 | glycan array binding signal (z-score) [29]: -0.271 | glycan array binding signal (z-score) [30]: -0.269 | glycan array binding signal (z-score) [31]: -0.207 | glycan array binding signal (z-score) (Gal3S(b1-3)GalNAc): -0.251 | glycan array binding signal (z-score) (Gal3S(b1-3)GlcNAc): -0.226 | glycan array binding signal (z-score) [32]: -0.176 | glycan array binding signal (z-score) (Gal3S(b1-4)Glc): -0.244 | glycan array binding signal (z-score) (Gal3S(b1-4)Glc6S): -0.124 | glycan array binding signal (z-score) (Gal3S(b1-4)GlcNAc): -0.259 | glycan array binding signal (z-score) (Gal3S(b1-4)GlcNAc6S): -0.135 | glycan array binding signal (z-score) [33]: -0.272 | glycan array binding signal (z-score) (Gal3S4S(b1-4)GlcNAc): -0.137 | glycan array binding signal (z-score) (Gal3S6S(b1-4)GlcNAc): -0.201 | glycan array binding signal (z-score) (Gal3S6S(b1-4)GlcNAc6S): -0.068 | glycan array binding signal (z-score) (Gal4S(b1-4)GlcNAc): -0.234 | glycan array binding signal (z-score) (Gal4S6S(b1-4)GlcNAc): -0.207 | glycan array binding signal (z-score) (Gal6S(b1-4)Glc): -0.216 | glycan array binding signal (z-score) (Gal6S(b1-4)Glc6S): -0.034 | glycan array binding signal (z-score) (Gal6S(b1-4)GlcNAc): -0.211 | glycan array binding signal (z-score) (Gal6S(b1-4)GlcNAc6S): -0.152 | glycan array binding signal (z-score) (GalNAc(a1-3)Gal): -0.254 | glycan array binding signal (z-score) (GalNAc(a1-3)GalNAc): -0.281 | glycan array binding signal (z-score) (GalNAc(b1-3)Gal): -0.203 | glycan array binding signal (z-score) [34]: -0.207
